Out of some 48,000 compounds screened, about 1,200 (2.5%) were called active. Inconclusive results (about 2%) are left out.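 How the source made its calls: active means activation of at least 60% and not above a set upper limit (about 1 call in 100 departs from these limits); inconclusive means activation of 40% to 60%, or above that upper limit; inactive means activation under 40%.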 This is one part of the list.
target: Probable G-protein coupled receptor 32 (Homo sapiens) (UniProt O75388); assay: qHTS for Agonists of Human Resolvin D1 Receptor DRV1; details: CHO-K1 GPR32 beta-arrestin PathHunter luminescence, 90 min; at 76.9 µM; active compounds read high; zero percent set by DMSO-only wells; further: 0% is about no effect
Chain of UniProt O75388 (O75388 whole entry, looked up): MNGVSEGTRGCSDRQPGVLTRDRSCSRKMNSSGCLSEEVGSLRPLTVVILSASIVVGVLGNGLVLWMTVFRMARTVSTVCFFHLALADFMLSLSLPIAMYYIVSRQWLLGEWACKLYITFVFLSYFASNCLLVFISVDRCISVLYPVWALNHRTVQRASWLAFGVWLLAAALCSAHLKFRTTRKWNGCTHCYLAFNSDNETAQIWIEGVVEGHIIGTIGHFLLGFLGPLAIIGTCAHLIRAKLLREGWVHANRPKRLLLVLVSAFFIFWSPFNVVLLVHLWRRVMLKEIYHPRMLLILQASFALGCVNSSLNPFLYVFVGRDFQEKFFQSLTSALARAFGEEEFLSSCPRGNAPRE
In short: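 Step 1: seed CHO-K1 GPR32 beta-arrestin cells, 2,500/well, overnight at 37 °C. Step 2: add compounds, 90 min at 37 °C. Step 3: detection reagent, 1 h ambient, then luminescence.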

activation, active:
O=c1cc(CSc2n[nH]c(-c3ccccc3)n2)[nH]c2ccccc12 93%

activation, inactive:
Cc1ccc2cccc(NC(=O)COc3ccccc3Cl)c2n1 -8.56%, Cc1ccc(C)c(Cn2c(CCCNC(=O)C3CCCCC3)nc3ccccc32)c1 -18.7%, COc1cccc(C(=O)c2cn(CC(=O)NCc3ccccc3Cl)c3nc(C)ccc3c2=O)c1 12.5%, CCCOc1cccc(C2c3c(oc4ccccc4c3=O)C(=O)N2c2nncs2)c1 (stereo not given) -4.63%, Cc1ccc(-c2nc(CS(=O)CC(=O)N3CCN(c4cccc(Cl)c4)CC3)c(C)o2)cc1 (stereo not given) -11.9%, C[C@H](Cc1ccccc1)Nc1ncnc2c1ncn2[C@@H]1O[C@H](CO)[C@@H](O)[C@H]1O -12.4%, O=C(CSc1nc2ccsc2c(=O)n1Cc1ccccc1Cl)NCc1ccc(F)cc1 0.992%, CCc1ccc(-n2c(=O)c3sc4ccccc4c3n(CC(=O)N3CCCC3)c2=O)cc1 -11.4%, Cc1nc(-c2cccc(NC(=O)Nc3ccccc3C(F)(F)F)c2)no1 -5.08%, Cc1c(Cl)cccc1NC(=O)Cn1cc(C(=O)c2cccs2)c2ccccc21 3.77%, CC(C)CN(CC(C)C)S(=O)(=O)c1ccc(C(=O)Nc2sc3c(c2C(N)=O)CC(C)(C)NC3(C)C)cc1 -13.3%, O=C(Nc1c2c(nn1-c1ccc(Cl)cc1)CS(=O)(=O)C2)c1cccc(F)c1 22.5%, CCc1ccc(NC(=O)CCCc2nnc3n(CC(C)C)c(=O)c4sccc4n23)cc1 -6.11%, CC(C)c1nn2c(=O)cc(COC(=O)c3ccccc3NC(=O)COc3ccccc3)nc2s1 -24.5%, COc1ccc(-c2nc(CNS(=O)(=O)c3ccc(Br)cc3)cs2)cc1 -16.4%, COC(=O)c1ccc(C2c3c(-c4ccccc4O)n[nH]c3C(=O)N2Cc2ccncc2)cc1 (stereo not given) 5.74%, O=C(CSc1nc(-c2cccc(F)c2)[nH]c1-c1ccccc1)Nc1ccc2c(c1)OCCO2 -13.8%, Cc1cccc(OCc2ccc(-c3nc(C#N)c(NCc4cccnc4)o3)o2)c1 44.4%, CCC(=O)N1CCc2cc(OC)c(OC)cc2C1COc1ccccc1OC (stereo not given) 1.31%, CC(=O)Nc1ccc(S(=O)(=O)NCCc2cn3ccsc3n2)cc1 -4.13%, Cc1nnc(NC(=O)CSc2nccn2Cc2ccc(F)cc2)s1 18.7%, COc1cccc(N2CCN(C(=O)c3cnn(-c4ccc(C)cc4C)c3C3CCN(C(=O)OC(C)(C)C)CC3)CC2)c1 -12.8%, CC(=O)N1c2c(cc(Br)cc2S(=O)(=O)N2CCN(c3cccc(Cl)c3)CC2)CC1C (stereo not given) 11.5%, Cc1ccc(Cl)cc1NC(=O)Cn1c(=O)n(Cc2ccc(C(=O)NCc3ccc4c(c3)OCO4)cc2)c(=O)c2ccccc21 -9.51%, CCN(Cc1ccccc1)C(=O)c1cc2c(s1)-c1c(C)cccc1OC2 -16%, CC(=O)c1cccc(NS(=O)(=O)c2ccc3c(c2)NC(=O)CC(=O)N3)c1 0.41%, Cc1ccc(C)c(N2CCN(C3=C(c4ccccc4)C(=O)c4ccccc43)CC2)c1 -0.125%, O=c1c2cnn(-c3ccc(Cl)cc3)c2ncn1Cc1cccc(C(F)(F)F)c1 5.83%, COc1ccc(NC(=O)CSc2cc(-c3ccccc3)nc(C)n2)cc1 -10.6%, Cc1nn(CC(=O)Nc2ccccc2F)c(=O)c2c(C)n(-c3ccc(Cl)cc3)nc12 -20.7%, CCN1CCN(c2c(S(=O)(=O)c3ccc(C)c(C)c3)cnc3ccc(F)cc23)CC1 -23%, CCOc1ccc(-c2csc(/C(C#N)=C/c3ccc(Br)cc3)n2)cc1 -9.53%, CCCN(CCC)C(=O)Cn1c(=O)n(-c2ccc(OC)cc2)c(=O)c2ccc(C(=O)NCc3ccc(C)cc3)cc21 -7.41%, CCCn1c(NCc2ccc(N(CC)CC)cc2)nc2ccccc21 6.08%, CCS(=O)(=O)c1ncc(N(Cc2ccc(F)cc2)Cc2ccco2)c(C(=O)Nc2cc(C)ccc2C)n1 -13.6%, Cc1nc([N+](=O)[O-])cn1-c1ccc([N+](=O)[O-])cc1 0.707%, CCOC(=O)C1CCN(C(=O)CN2c3ccc(CC)cc3-c3ccccc3S2(=O)=O)CC1 -37.7%, CCC(=O)Nc1ccc2nc(SCCOc3ccc(C)cc3)sc2c1 10.1%, CN1CCN(c2nc3c(S(=O)(=O)c4ccccc4)nnn3c3ccsc23)CC1 -7.08%, Cc1ccc(-n2c(SCC(=O)Nc3cccc(C)c3)nc3c(oc4ccccc43)c2=O)cc1 -14.9%, CCOC(=O)C1CCCN(C(=O)c2ccc(-n3ccc4ccccc43)s2)C1 (stereo not given) 2.63%, CO[C@@H]1[C@@H](O[C@@H]2O[C@H](C)[C@@H](O[C@H]3C[C@@](C)(O)[C@@H](O)[C@H](C)O3)[C@H](N(C)C)[C@H]2O)[C@@H](CC=O)C[C@@H](C)[C@@H](O[C@@H]2CC[C@H](N(C)C)[C@@H](C)O2)/C=C/C=C/C[C@@H](C)OC(=O)C[C@H]1OC(C)=O -10.4%, COc1cccc(-c2ccc3c(N)c(C(=O)Nc4cc(F)ccc4F)sc3n2)c1 1.31%, Cc1cc(OI)c(C(C)C)cc1-c1cc(C(C)C)c(OI)cc1C 18.4%, COc1cccc(CNCCSc2nnnn2C)c1OCc1ccccc1F 30.3%, CCCCOC(=O)c1cccc(NC(=O)c2cc3ccccc3o2)c1 19.2%, CCOc1ccc(C(=O)Nc2cccc(OCc3cc(=O)n4cc(C)sc4n3)c2)cc1 24.3%, O=C(Nc1ccc(Cl)cc1F)c1cc(S(=O)(=O)NCc2ccc3c(c2)OCO3)ccc1F 16%, CCc1ccc2oc(C(=O)Nc3sc4c(c3C(=O)NC)CCCC4)cc(=O)c2c1 0.439%, O=C(NCCc1ccccc1)c1ccc(CSc2nc3ccncc3n2Cc2ccc(F)cc2)cc1 -15.5%, CCCCn1cc(S(=O)(=O)c2cccc(C)c2)c(=O)c2cc(F)c(N3CCOCC3)cc21 -7.65%, CN(C)CCn1c2c(c(SCC(=O)Nc3ccc(F)cc3F)nc1=O)CCC2 -5.47%, Cc1ccccc1OC(=O)CSc1nnc(-c2cccs2)o1 -4.28%, CCOC(=O)c1c(S(=O)(=O)N2CCCC(C(=O)N3CCN(c4ccccc4)CC3)C2)c(C)n(C)c1C (stereo not given) -0.185%, Cc1ccc(C)c(Cn2nc(-c3cc(C)ccc3C)ccc2=O)c1 27.9%, O=[N+]([O-])c1ccc(C(c2sc3nc(-c4ccco4)nn3c2O)N2CCN(c3cccc(Cl)c3)CC2)cc1 (stereo not given) -21.2%, CCOC(=O)c1cc2c(=O)n3ccccc3nc2n(CC2CCCO2)c1=NC(=O)c1ccc(C)cc1 (stereo not given) -13.5%, COc1cccc(N2CC(NC(=O)c3ccc(S(=O)(=O)N4CCCCC4)cc3)CC2=O)c1 (stereo not given) -5.2%, CCOc1ccc(S(=O)(=O)NCC(c2ccco2)S(=O)(=O)c2ccc(F)cc2)cc1 (stereo not given) -24.5%, COc1ccc(-c2nc3ccccc3o2)cc1NC(=O)COc1ccc(C(C)(C)C)cc1 -14.8%, Cc1ccc(CN2C(=O)C3(c4ccccc42)N(c2cccc(C(F)(F)F)c2)C(=O)CS3(=O)=O)cc1 (stereo not given) -25.1%, CCc1cccc(NC(=O)Cn2nc(-c3cc(C)ccc3C)ccc2=O)c1 12.2%, N=C(N=C(N)N)N1CCOCC1 -2.31%, Cc1nnc(NCc2ccccc2)c2c1nnn2Cc1ccc(F)cc1 -3.26%, CC(Oc1ccccc1Cl)C(=O)N1CCN(CCc2ccccn2)CC1 (stereo not given) 11.1%, COc1cc(NC(=O)c2cc3c(=O)n(Cc4cccs4)ccc3nc2C)cc(OC)c1OC -12.8%, COc1ccccc1NC(=O)CSc1oc(-c2cccs2)nc1S(=O)(=O)c1ccccc1 -21.1%, CC(Sc1nc(=O)cc(N)n1CCc1ccccc1)C(=O)Nc1ccccc1C#N (stereo not given) 12.1%, O=C(CN1C(=O)COc2ccc(S(=O)(=O)N3CCOCC3)cc21)N1CCN(c2ccc(F)cc2)CC1 -1.74%, COc1ccc(OC)c(NC(=O)CN2C(=O)CCc3cc(S(=O)(=O)N4CCCCC4)ccc32)c1 -19.2%, O=C(NC1CCCCC1)c1ccc2c(c1)N(Cc1ccc(Cl)cc1)C(=O)c1ccccc1S2(=O)=O -18.5%, COc1ccc(Cn2ccnc2SCC(=O)Nc2nc3ccccc3s2)cc1 -17.7%, COc1cc2ncc3c(-c4ccc(C)cc4)nn(-c4ccc(F)cc4F)c3c2cc1OC -9.13%, CN(C)CCCNc1cc(N2CCN(C3CCCCC3)CC2)c2noc3c2c1C(=O)c1ccccc1-3 -4.71%, O=C(NCc1ccc2c(c1)CCN2C(=O)c1ccccc1)Nc1cccc(C(F)(F)F)c1 7.72%, Cc1ccccc1OCCSc1nc2ccc(NC(=O)c3cccc(F)c3)cc2s1 5.85%, Cc1ccc(NC(=O)CN2C(=O)c3cccnc3Oc3ccc(Cl)cc32)cc1 -13%, Cc1c(C(=O)NCc2ccccc2Cl)sc2ncnc(N(C)C3CCCCC3)c12 -4.36%, Cc1ccn2c(Nc3ccc4c(c3)OCCO4)c(-c3ccc(C)o3)nc2c1 -14%
